Experimental data from PubChem BioAssay AID504333 (National Center for Advancing Translational Sciences (NCATS), 2011).
Where “and” joins values, the source holds several entries; their conditions need not be identical. Equal values may be shown once. Among all 360,000 compounds or so, about 16,000 (4.4%) were called active. The inconclusive results got no clear call from the source; some entries with a clear call stand among them for comparison. Calls follow the shape of the dose curve; as a rule, active = well fitted inhibition curve with a large enough effect; inconclusive = small, poorly fitted or top-dose-only effect; inactive = no such curve, though single readings can be large or run the other way. Potencies of inconclusive entries are doubtful fits and often do not repeat.

Target: Bromodomain adjacent to zinc finger domain protein 2B (Homo sapiens) (UniProt Q9UIF8)
Sequence of UniProt Q9UIF8 (Q9UIF8 whole entry, looked up, the tested form may be a part): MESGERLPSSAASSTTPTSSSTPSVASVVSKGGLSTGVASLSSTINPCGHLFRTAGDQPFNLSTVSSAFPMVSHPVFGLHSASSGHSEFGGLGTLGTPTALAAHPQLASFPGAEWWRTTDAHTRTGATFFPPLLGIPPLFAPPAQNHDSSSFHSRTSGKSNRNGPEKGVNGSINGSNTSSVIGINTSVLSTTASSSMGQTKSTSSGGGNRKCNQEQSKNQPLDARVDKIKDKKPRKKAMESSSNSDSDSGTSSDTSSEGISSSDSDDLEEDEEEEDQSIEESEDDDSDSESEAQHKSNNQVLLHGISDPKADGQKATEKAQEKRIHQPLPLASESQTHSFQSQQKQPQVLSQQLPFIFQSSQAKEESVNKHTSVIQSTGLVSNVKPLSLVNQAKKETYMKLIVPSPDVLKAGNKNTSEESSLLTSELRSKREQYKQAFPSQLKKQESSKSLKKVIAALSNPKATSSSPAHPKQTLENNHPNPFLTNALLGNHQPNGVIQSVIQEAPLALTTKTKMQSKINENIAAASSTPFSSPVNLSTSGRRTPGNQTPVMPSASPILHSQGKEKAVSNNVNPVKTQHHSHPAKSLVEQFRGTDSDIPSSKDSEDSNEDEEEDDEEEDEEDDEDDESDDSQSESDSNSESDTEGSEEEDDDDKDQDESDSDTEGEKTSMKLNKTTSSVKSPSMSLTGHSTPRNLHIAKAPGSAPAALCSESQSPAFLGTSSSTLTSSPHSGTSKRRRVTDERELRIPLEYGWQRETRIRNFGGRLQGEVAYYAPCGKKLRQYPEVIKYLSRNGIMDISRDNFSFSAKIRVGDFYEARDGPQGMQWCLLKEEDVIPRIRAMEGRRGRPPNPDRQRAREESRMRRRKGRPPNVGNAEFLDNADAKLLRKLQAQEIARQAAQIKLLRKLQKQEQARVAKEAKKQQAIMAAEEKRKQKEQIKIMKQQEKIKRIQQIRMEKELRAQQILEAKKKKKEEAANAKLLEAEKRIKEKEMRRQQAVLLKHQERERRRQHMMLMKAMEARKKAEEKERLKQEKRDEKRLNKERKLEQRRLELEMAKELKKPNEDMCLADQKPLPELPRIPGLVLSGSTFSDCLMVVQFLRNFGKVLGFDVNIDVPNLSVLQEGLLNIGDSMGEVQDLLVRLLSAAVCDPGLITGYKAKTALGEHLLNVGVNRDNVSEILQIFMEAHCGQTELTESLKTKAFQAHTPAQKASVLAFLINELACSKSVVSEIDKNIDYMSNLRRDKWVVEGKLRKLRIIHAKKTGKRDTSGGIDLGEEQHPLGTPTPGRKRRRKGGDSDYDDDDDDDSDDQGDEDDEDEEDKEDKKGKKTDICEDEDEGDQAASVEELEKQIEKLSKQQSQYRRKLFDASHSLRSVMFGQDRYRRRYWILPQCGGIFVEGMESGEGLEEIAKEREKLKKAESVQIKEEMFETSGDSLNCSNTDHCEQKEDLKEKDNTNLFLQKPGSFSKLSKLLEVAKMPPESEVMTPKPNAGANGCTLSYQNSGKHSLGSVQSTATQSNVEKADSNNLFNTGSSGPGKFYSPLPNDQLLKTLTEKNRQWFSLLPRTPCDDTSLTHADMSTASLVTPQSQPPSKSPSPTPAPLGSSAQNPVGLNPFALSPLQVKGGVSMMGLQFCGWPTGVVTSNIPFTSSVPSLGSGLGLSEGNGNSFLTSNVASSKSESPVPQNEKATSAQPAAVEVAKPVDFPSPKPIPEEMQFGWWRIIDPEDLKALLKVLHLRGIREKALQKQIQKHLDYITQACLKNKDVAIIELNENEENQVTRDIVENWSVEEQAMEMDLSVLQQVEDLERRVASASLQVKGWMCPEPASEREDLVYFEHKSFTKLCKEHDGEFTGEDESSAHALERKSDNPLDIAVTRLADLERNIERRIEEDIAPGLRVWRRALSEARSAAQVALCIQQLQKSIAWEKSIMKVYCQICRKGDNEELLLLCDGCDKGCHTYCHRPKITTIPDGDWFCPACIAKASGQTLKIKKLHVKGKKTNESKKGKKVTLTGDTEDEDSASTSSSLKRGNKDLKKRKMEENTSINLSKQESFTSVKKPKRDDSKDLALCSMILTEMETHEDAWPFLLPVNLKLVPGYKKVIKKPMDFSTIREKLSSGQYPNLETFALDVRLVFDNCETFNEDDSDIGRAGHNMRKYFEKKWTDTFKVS
Assay: qHTS Assay for Inhibitors of BAZ2B; also: nearly all actives have a fitted effect of over 60% in size
Details: AlphaScreen BAZ2B-H3K14Ac peptide displacement; activity change, negative = inhibition: at 114 µM (top of the series)
Summary of the method: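 AlphaScreen displacement of biotin-H3(5-23)K14Ac peptide (50 nM final) from BAZ2B (50 nM final) in PBS pH 7.4, 0.01% Tween-20; complex preformed 30 min RT, then compounds (top 110 uM) 30 min RT, beads 20 min dark.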
% is scaled to controls: 0 for no effect and ±100 for the full control effect; potency is read from the fitted curve at half-maximal effect; tags tell the direction and shape of the fitted curve.

SMILES	Potency	activity change, negative = inhibition
O=C(O)CN1C(=O)c2ccc(Oc3cccc4c3C(=O)N(CC(=O)O)C4=O)cc2C1=O	inconclusive: 89.1 µM [inhibitor, single point]	–
CCN(CC)CCCN(C(=O)c1ccco1)c1nc(-c2ccc(Cl)cc2)cs1	inconclusive: 39.8 µM [inhibitor, partial curve]	–
O=C(NCc1ccccc1)C(Cc1ccccc1)N1C(=O)C2C3CCC(C3)C2C1=O (stereo not drawn)	inconclusive: 100 µM [inhibitor, single point]	–
CCC(=O)Nc1nc2nc(C)cc(=O)n2[nH]1	active: 56.2 µM	–
Clc1ccc(CSc2nccn2Cc2ccccc2)cc1	inconclusive: 44.7 µM [inhibitor, partial curve]	–
CCCCc1ccc(C2C(C#N)=C(N)SC(N)=C2C#N)s1	active: 50.1 µM	–
COc1ccccc1N1CCN(Cc2cc(Br)c(O)c3ncccc23)CC1	active: 12.6 µM	–
CC(C)c1cc(N=NC(N)=O)cc(C(C)C)c1O	inconclusive: 50.1 µM [inhibitor, partial curve]	–
Cc1nnc(C)c2c(C)n(-c3ccccc3)c(C)c12	–	inactive: -9.92%
O=C(Nc1ccccc1F)c1nc(SCc2ccccc2F)ncc1Cl	–	inactive: 19.4%
CC1CN(C(=S)Nc2ccccc2C(F)(F)F)CC(C)O1 (stereo not drawn)	–	inactive: -0.501%
CCOC(=O)C1=C(CSc2nc(C)cc(C)c2C#N)OC(N)=C(C#N)C1c1cccs1 (stereo not drawn)	inconclusive: 89.1 µM [inhibitor, single point]	–
COC(=O)c1ccc(N=NNc2ccc(C(=O)OC)cc2)cc1	–	inactive: -28.9%
COc1ccc(CCNC(=S)NC(=O)c2cc(OC)c(OC)c(OC)c2)cc1OC	inconclusive: 44.7 µM [inhibitor, partial curve]	–
CC(C)(C)C(=O)N1CCN(c2ccc([N+](=O)[O-])c(NCc3cccnc3)c2)CC1	inconclusive: 70.8 µM [inhibitor, single point]	–
CC(=O)c1cccc(NC(=O)N2CCCC2C(=O)Nc2cccc(C)c2)c1 (stereo not drawn)	–	inactive: 13.5%
COc1ccc(C(=O)N2C(=S)NC(=O)/C2=C\c2ccc(C)cc2)cc1	active: 50.1 µM	–
Cc1cc(NC(=O)CSc2nccn2C)no1	–	inactive: -8.9%
CCN(CC)CC(=O)Nc1sc(C)c(C)c1C(=O)c1ccc(C)cc1	inconclusive: 31.6 µM [inhibitor, partial curve]	–
CCOc1ccc(S(=O)(=O)Nc2ccc3c(c2)OCO3)c2cccnc12	inconclusive: 79.4 µM [inhibitor, single point]	–
Cn1c(CCc2ccccc2)nnc1SCC(=O)N1CCCC1	–	inactive: 7.16%
Cc1ccc(C(=O)Cc2cc3ccccc3oc2=O)c(C)c1	–	inactive: -13.8%
Cc1oc(-c2ccccc2F)nc1CSCC(=O)NCc1ccc2c(c1)OCO2	inconclusive: 89.1 µM [inhibitor, single point]	–
Cc1noc(/C=C/N(C)C)c1S(=O)(=O)N(C)Cc1ccc(F)cc1	inconclusive: 56.2 µM [inhibitor, partial curve]	–
Oc1ccc(/C=N/NC(=S)Nc2cccnc2)c(O)c1O	active: 2.24 µM	–

SMILES	Potency	activity change, negative = inhibition
O=C(CCn1c(=S)oc2ccccc21)N1CCN(c2ccc(F)cc2)CC1	inconclusive: 79.4 µM [inhibitor, single point]	–
COc1ccccc1N1CCN(S(=O)(=O)c2cn(C)nc2C)CC1	–	inactive: -14.5%
Cc1ccc(OCC(=O)Nc2ccccc2C(=O)OCc2cc(=O)n3c(C)csc3n2)cc1	inconclusive: 89.1 µM [inhibitor, single point]	–
Cc1ccc(-c2nnc3ccccc3c2C(=O)Nc2cccc(C(F)(F)F)c2)cc1	–	inactive: -23.3%
COc1ccc(-c2ccc(C(c3c(C)[nH][nH]c3=O)c3c(C)[nH][nH]c3=O)o2)c([N+](=O)[O-])c1	active: 39.8 µM	–
COc1ccc(OC)c(-n2cnc3cc(C(=O)NCCc4ccccc4)ccc32)c1	inconclusive: 89.1 µM [inhibitor, single point]	–
NC(=O)N1CCC2(CC1)NC(=O)N(c1ccccc1)N2	–	inactive: -15.5%
COc1ccc(/C=C/C(=O)NC(=S)NNC(=O)c2cc(OC)c(OC)c(OC)c2)cc1OC	inconclusive: 79.4 µM [inhibitor, single point]	–
Cc1ccc(CN(C(=O)c2ccc([N+](=O)[O-])cc2)c2ccccn2)cc1	inconclusive: 44.7 µM [inhibitor, partial curve]	–
COc1ccc(NC(=S)NCCC2=CCCCC2)cc1OC	inconclusive: 79.4 µM [inhibitor, partial curve]	–
Nc1ccccc1Nc1cccc(C(F)(F)F)c1	active: 50.1 µM	–
CCOC(=O)c1noc2nc(C)n(CC(=O)Nc3ccc(Br)cc3C)c(=O)c12	–	inactive: 0.748%
CCOc1ccc(CN2CCN(S(=O)(=O)c3ccc(NC(C)=O)cc3)CC2)cc1OC	active: 50.1 µM	–
Cc1ccc(C(C)NC(=S)NCc2ccc(F)cc2)c(C)c1 (stereo not drawn)	inconclusive: 44.7 µM [inhibitor, partial curve, poor fit]	–
O=c1ccc2ccc(Oc3ccc([N+](=O)[O-])cc3[N+](=O)[O-])cc2o1	inconclusive: 39.8 µM [inhibitor, partial curve]	–
CCCCCC(=O)Cc1cc(O)cc2c1C(=O)Oc1cc(O)c(C(=O)O)c(CCCCC)c1O2	inconclusive: 79.4 µM [inhibitor, single point]	–
COc1cccc(NC(=O)CN(C)CC(=O)Nc2ccc(Cl)cc2[N+](=O)[O-])c1	active: 50.1 µM	–
CCOc1ccccc1C(=O)Nc1cc2c(cc1N1CCCCC1)n(C)c(=O)n2C	inconclusive: 63.1 µM [inhibitor, single point]	–
Cc1ccc(NC(=O)CN(C)C(=O)C(C)OC(=O)c2ccccc2NCCO)cc1 (stereo not drawn)	inconclusive: 89.1 µM [inhibitor, single point]	–
Cc1cccc(C(=O)c2ccccc2C(=O)O)c1	–	inactive: -16.9%
CCCn1ccc2c(OCC(=O)Nc3ccc(C(F)(F)F)cc3)cccc2c1=O	–	inactive: 2.89%
CC(C)CC(=O)N1CCN(Cc2ccccc2Cl)CC1	active: 50.1 µM	–
CC(=O)c1ccc(NC(=O)CN2C(=O)CCc3cc(S(=O)(=O)N4CCC(C)CC4)ccc32)cc1	inconclusive: 70.8 µM [inhibitor, partial curve]	–
CCOc1ccccc1/C=N/Nc1cc(C)nc2ccc(C)cc12	inconclusive: 79.4 µM [inhibitor, single point]	–
CCNC(=O)Oc1ccc[nH]c1=O	inconclusive: 89.1 µM [inhibitor, single point]	–

SMILES	Potency	activity change, negative = inhibition
Cc1cc2c(c(/C=C/C(=O)c3ccccc3)c1)OC1(C=C2)Oc2ccccc2C(=O)N1C (stereo not drawn)	inconclusive: 22.4 µM [inhibitor, full curve]	–
COc1ccc(CC(=O)Nc2sc3c(c2C(=O)Nc2ccc(C)cc2)CCCCC3)cc1	active: 56.2 µM	–
COc1ccc(-c2nc3ccccc3c(C(=O)Nc3ccc(S(=O)(=O)Nc4cc(C)on4)cc3)c2C)cc1	inconclusive: 89.1 µM [inhibitor, single point]	–
COc1cccc(CN(C)C(=O)c2ccc(NS(=O)(=O)c3ccc4[nH]c(=O)[nH]c4c3)cc2)c1OC	–	inactive: -12.8%
N#Cc1c(-c2cccs2)nc(SCc2ccc(Cl)cc2)[nH]c1=O	inconclusive: 31.6 µM [inhibitor, partial curve]	–
O=S(=O)(NCc1ccco1)c1ccc(S(=O)(=O)N2CCCC2)cc1	inconclusive: 79.4 µM [inhibitor, single point]	–
Cc1nc(N2CCCC2)ncc1C(=O)NCc1ccccc1Cl	–	inactive: -3.16%
COc1cccc(N2CCN(C(=O)c3nc(-c4ccc(Cl)cc4)n4c3CCCCC4)CC2)c1	active: 28.2 µM	–
CC(=O)C1=C(O)CC(c2ccccc2)CC1=NCCc1c(C)[nH]c2ccccc12 (stereo not drawn)	inconclusive: 79.4 µM [inhibitor, single point]	–
O=C(Nc1cc([N+](=O)[O-])ccc1O)NC1CCS(=O)(=O)C1 (stereo not drawn)	–	inactive: 10%
CS(=O)(=O)Oc1ccc2c(c1)O/C(=C\C=C\c1ccccc1)C2=O	inconclusive: 39.8 µM [inhibitor, partial curve]	–
COc1ccc(N)cc1-n1c(C)ccc1C	inconclusive: 79.4 µM [inhibitor, single point]	–
Cc1cccc(N/N=C2/COC(C)(C)CC2=O)c1	inconclusive: 39.8 µM [inhibitor, partial curve]	–
COc1ccc(CNC(=O)Cn2nc(C)c3c(C)n(-c4ccc(C)cc4)nc3c2=O)cc1OC	active: 79.4 µM	–
CCOP(=O)(OCC)C(Nc1cccc([N+](=O)[O-])c1)c1ccc(N(C)C)cc1 (stereo not drawn)	active: 39.8 µM	–
COC(=O)/C(C#N)=C/c1c(N2CCN(c3ccc(OC)cc3)CC2)nc2c(C)cccn2c1=O	inconclusive: 8.91 µM [inhibitor, full curve]	–
CCOc1ccccc1NC(=O)Cc1cccs1	active: 50.1 µM	–
CN(c1ccc([N+](=O)[O-])cc1C(N)=O)C1CCCCC1	active: 79.4 µM	–
Cc1ccc(CCNC(=O)c2ccc(CS(=O)(=O)c3ccccc3C)o2)cc1	inconclusive: 100 µM [inhibitor, single point]	–
O=C(Cn1ncc2c3ccccc3n(Cc3ccc(Cl)cc3)c2c1=O)NC1CCCCCC1	–	inactive: -1.35%
CCOC(=O)Cc1nnc(NC(=O)CSc2nnc3c(n2)[nH]c2ccccc23)s1	inconclusive: 50.1 µM [inhibitor, partial curve]	–
CCc1ccc(CNC(=O)c2cnc3sc(N(CC)CC)nn3c2=O)cc1	–	inactive: -2.72%
C=CCc1cc(OC)ccc1OCC(O)CN1CCN(c2ccc(OC)cc2)CC1 (stereo not drawn)	active: 50.1 µM and active: 35.5 µM	–
